{"source": "PubChem BioAssay AID686970", "about": "(National Center for Advancing Translational Sciences (NCATS), 2013)", "note": "The campaign covered roughly 360,000 compounds. About 6,000 (1.7%) were called active. This list was built around the results that the source calls inconclusive (neither active nor inactive); the mix of calls is not that of the screen. The call rests on the fitted dose curve; in most records, active means well fitted cell-killing curve with a large enough effect; inconclusive means small, poorly fitted or top-dose-only effect, or effect the other way; inactive means flat fitted curve, though single readings scatter. No potency is given beside an inconclusive call; the fits are too rough. Potency means the concentration at half of the fitted maximal effect; tags describe the fitted curve by direction and shape."}
{"test": "qHTS for induction of synthetic lethality in tumor cells producing 2HG: qHTS for the HT-1080-NT fibrosarcoma cell line;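 further: NT is the 2HG producing partner of a matched IDH1 knockdown line; nearly all actives have a fitted effect of over 55% in size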;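 on activity, negative = less viability: 0% = DMSO-treated cells and -100% = media-only wells without cells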", "details": "HT-1080-NT fibrosarcoma viability, CellTiter-Glo ATP luminescence, 48 h; activity, negative = less viability: at 46.1 µM (top of the series) unless noted", "procedure,_shortened": "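Toxicity toward the 2HG-producing NT line was scored as %Activity, normalised to DMSO and no-cell wells, from CellTiter-Glo luminescence after 48 hours' treatment.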"}
{"smiles": "O=C(Nc1ccc(N2CCN(c3ncccc3C(F)(F)F)CC2)nc1)c1cccs1", "Potency": "active: 18.4 µM"}
{"smiles": "COCCN=C1N[C@@H](c2cccc(C(F)(F)F)c2)C(C(=O)OC)=C(C)N1Cc1ccccc1", "Potency": "inconclusive [cytotoxic, single point]"}
{"smiles": "COCCN(C(=O)COC(=O)CSc1ccc(Cl)cc1)c1c(N)n(Cc2ccccc2)c(=O)[nH]c1=O", "Potency": "inactive"}
{"smiles": "O=C(COc1cccc(Br)c1)Nc1ccc(N2CCOCC2)cc1N1CCOCC1", "activity, negative = less viability": "inconclusive: 9.16%"}
{"smiles": "O=C(NCc1ccco1)C1CC(c2cccc([N+](=O)[O-])c2)=NO1", "note": "(centres undefined)", "Potency": "inactive"}
{"smiles": "CCCSc1nnc(Nc2ccccc2C)s1", "activity, negative = less viability": "inconclusive: 29.6%"}
{"smiles": "C(=N\\N1CCN(c2ccccc2)CC1)/c1ccccc1", "Potency": "inconclusive [rising, full curve]"}
{"smiles": "COc1ccc(NC(=O)c2nc(C)c(C3(C)CC(c4ccccc4)=NO3)s2)cc1", "note": "(centres undefined)", "Potency": "inconclusive [cytotoxic, full curve]"}
{"smiles": "CC[C@H](C)[C@H]1CNC(=O)C(=O)N1CC1CCN(CC2CCC(C)CC2)CC1", "note": "(some centres undefined)", "Potency": "inactive"}
{"smiles": "CCC(=O)N1c2ccc(S(=O)(=O)NCc3ccccc3)cc2CC1C", "note": "(centres undefined)", "Potency": "inactive"}
{"smiles": "Cc1ccc(S(=O)(=O)N2CCN(C(=O)COC(=O)CNC(=O)c3ccccc3F)CC2)c(C)c1", "Potency": "inactive"}
{"smiles": "Cc1ccc(C)c(CN2CCC(CNC(=O)Nc3cccc(Cl)c3C)CC2)c1", "Potency": "inactive"}
{"smiles": "Cc1ccc(S(=O)(=O)N2CCCCC2)cc1NC(=O)COC(=O)c1cccc(O)c1", "Potency": "inactive"}
{"smiles": "COc1ccc(C#Cc2c(-c3ccccc3)n(C)c3ccccc23)cc1", "Potency": "inconclusive [cytotoxic, single point]"}
{"smiles": "C[C@H]1CN([C@@H](C)CO)C(=O)c2cccc(NC(=O)Nc3ccc(C(F)(F)F)cc3)c2O[C@@H]1CN(C)S(=O)(=O)c1ccc(Cl)cc1", "Potency": "inconclusive [cytotoxic, single point]"}
{"smiles": "CC1(c2nnnn2-c2ccc3c(c2)OCCO3)CCC(=O)N1CC(F)(F)F", "note": "(centres undefined)", "Potency": "inactive"}
{"smiles": "O=C(NC1CCCCC1)C(c1ccncc1)n1c(=O)c(-c2cc3ccccc3[nH]2)nc2ccccc21", "note": "(centres undefined)", "Potency": "inconclusive [cytotoxic, single point]"}
{"smiles": "O=C(Cc1cn(-c2ccccc2)nc1-c1ccccc1)N1CCCCC1", "Potency": "inconclusive [cytotoxic, single point]"}
{"smiles": "CC(=O)N(C(C)=O)c1cccc(N(Cc2ccccc2)Cc2ccccc2)c1", "Potency": "inconclusive [cytotoxic, single point]"}
{"smiles": "NNC(=O)c1cc(-c2ccc(N)cc2)nc2ccc(Br)cc12", "Potency": "inactive"}
{"smiles": "COc1ccc(C2CC(C(F)(F)F)n3nc(C(=O)NCc4c(C)nn(C)c4C)c(Cl)c3N2)cc1", "note": "(centres undefined)", "Potency": "inconclusive [cytotoxic, partial curve]"}
{"smiles": "O=C(COC(=O)c1ccc(N2CCOCC2)c([N+](=O)[O-])c1)Nc1ccc2c(c1)OCO2", "activity, negative = less viability": "inconclusive: 32.6%"}
{"smiles": "N#Cc1ccc(/C=C/C(=O)c2ccc3c(c2)OCO3)cc1", "Potency": "inconclusive [cytotoxic, single point]"}
{"smiles": "CCN(CC)CCCN(C(=O)c1ccc(Br)cc1)c1nc(-c2ccc(OC)cc2)cs1", "Potency": "inconclusive [cytotoxic, single point]"}
{"smiles": "O=C(NCC1COCCO1)c1ccc2nc(Cc3cccc(Cl)c3)oc2c1", "note": "(centres undefined)", "Potency": "inactive"}
{"smiles": "O=C(NNc1ccccc1F)c1cccs1", "Potency": "inconclusive [cytotoxic, partial curve]"}
{"smiles": "Cc1ccc2nc(N(CCCN(C)C)C(=O)c3ccco3)sc2c1", "Potency": "inactive"}
{"smiles": "O=C(NC1CCCCC1)C(c1cccc2ccccc12)n1c(=O)c(-c2cc3ccccc3[nH]2)nc2ccccc21", "note": "(centres undefined)", "Potency": "active: 20.6 µM"}
{"smiles": "Cc1ccc(-c2nc(-c3ccccn3)no2)cc1", "Potency": "active: 5.17 µM"}
{"smiles": "O=C1C(=O)c2ccccc2C(O)=C1CCCCl", "Potency": "active: 16.4 µM"}
{"smiles": "O=C(N/N=C/c1ccc[nH]1)c1ccc(COc2cccc3cccnc23)cc1", "Potency": "inconclusive [cytotoxic, partial curve]"}
{"smiles": "CCCCCc1c(-c2cccc(Br)c2)ncn1CCc1ccccc1OC", "Potency": "inconclusive [cytotoxic, single point]"}
{"smiles": "COCCNC(=O)C1(C)CCCN(C(=O)c2ccc3c(c2)OCO3)C1", "note": "(centres undefined)", "Potency": "inconclusive [rising, single point]"}
{"smiles": "Cc1ccc(NC(=O)Cn2c(O)c(N=NC(=O)c3cc4ccccc4cc3O)c3ccccc32)cc1", "Potency": "active: 20.6 µM"}
{"smiles": "COc1cc(C(=O)Nc2nnc(C3=COCCO3)o2)cc(OC)c1OC", "Potency": "inactive"}
{"smiles": "COCCCNC1=C(Cl)C(=O)c2ccccc2C1=O", "Potency": "inconclusive [cytotoxic, partial curve, poor fit]"}
{"smiles": "COc1ccc(NC(=O)c2cc(-c3ccccc3Cl)on2)cc1OC", "activity, negative = less viability": "inconclusive: 30.3%"}
{"smiles": "COc1ccc(CN2CC[C@H]3C=CCc4cccc(c43)C2)cc1", "Potency": "inactive"}
{"smiles": "CC1(C)Cc2c(ccc3ccccc23)/C(=C/C(=O)N2CCCCC2)N1", "Potency": "inconclusive [cytotoxic, single point]"}
{"smiles": "C/C(=N\\Nc1cccc([N+](=O)[O-])c1)c1ccccc1O", "Potency": "inconclusive [cytotoxic, full curve, poor fit]"}
{"smiles": "Cc1ccc2ccc(C(Nc3ccccc3)c3ccc(C(C)C)cc3)c(O)c2n1", "note": "(centres undefined)", "Potency": "inconclusive [cytotoxic, partial curve]"}
{"smiles": "Cc1cc(=O)oc2cc(OCC(=O)Nc3ccc(N4CCC(C)CC4)cc3)ccc12", "Potency": "inconclusive [cytotoxic, single point]"}
{"smiles": "Cc1cc(C)cc(N=Cc2ccc([N+](=O)[O-])s2)c1", "Potency": "inconclusive [cytotoxic, single point]"}
{"smiles": "O=C(CSc1nnc(Cc2cccs2)n1-c1ccccc1)NCc1ccc2c(c1)OCO2", "Potency": "inactive"}
{"smiles": "Fc1ccc2[nH]c3c(NCc4ccccc4)ncnc3c2c1", "Potency": "inconclusive [cytotoxic, partial curve]"}
{"smiles": "O=C1N[C@H](Cc2c[nH]c3ccccc23)COC(=O)[C@H](Cc2ccc(F)cc2)C/C=C\\C[C@H]1CC(=O)N(CCO)Cc1ccccc1", "Potency": "inconclusive [cytotoxic, single point]"}
{"smiles": "CCc1nc2c(OCCC3CCCCC3)cccn2c1N(C)C(=O)c1cccs1", "Potency": "inconclusive [cytotoxic, single point]"}
{"smiles": "COCCCNCCCOc1ccc(C(C)(C)c2ccccc2)cc1", "Potency": "inactive"}
{"smiles": "CN1CCN(C(=O)CCN2C(=O)/C(=C/c3cccc(Br)c3)SC2=S)CC1", "Potency": "active: 14.6 µM"}
{"smiles": "COc1ccccc1/C=C/CN1CCCC(CCC(=O)NCc2ccc(F)c(F)c2)C1", "note": "(centres undefined)", "Potency": "inconclusive [cytotoxic, partial curve]"}
{"smiles": "CCOC(=O)C1=C(CSc2nc(C)cc(C)c2C#N)OC(N)=C(C#N)C1c1ccccc1", "note": "(centres undefined)", "Potency": "inactive"}
{"smiles": "CCC(O)c1nc2ccccc2n1CCc1ccccc1", "note": "(centres undefined)", "Potency": "inactive"}
{"smiles": "Cc1cccc(Cn2cc(/C=C/[N+](=O)[O-])c3ccccc32)c1", "Potency": "inconclusive [cytotoxic, partial curve]"}
{"smiles": "COc1cc(CC(NC(C)=O)C(=O)NC2CCN(C(=O)C3CC3)CC2)cc(OC)c1", "note": "(centres undefined)", "activity, negative = less viability": "inconclusive: 30.4%"}
{"smiles": "Fc1ccc(-c2nc3ccc(Br)cn3c2Cc2ccccc2C(F)(F)F)cc1", "Potency": "inactive"}
{"smiles": "Nc1cc2c(cc1C(=O)c1ccccc1F)OCCO2", "Potency": "inactive"}
{"smiles": "CCCCCc1c(Cc2ccccc2)ncn1CCc1ccccc1OC", "Potency": "active: 18.4 µM"}
{"smiles": "Cc1ccc(N(C)C(=O)CC(C)S(=O)(=O)c2ccc3c(c2)NC(=O)CO3)cc1", "note": "(centres undefined)", "Potency": "inactive"}
{"smiles": "Cc1ccc(C)c(CNS(=O)(=O)c2c(C)[nH]c(C)c2C(=O)N2CCCC2)c1", "Potency": "inactive"}
{"smiles": "COC(=O)[C@@]1(Cc2ccc(F)cc2)[C@H]2c3cc(C(=O)N4CCCC4)n(Cc4ccc(Cl)c(C(F)(F)F)c4)c3C[C@H]2CN1C(=O)c1ccccc1", "Potency": "inconclusive [cytotoxic, partial curve]"}
{"smiles": "CCOc1ccc(N(CC(=O)NN=C2CCN(C)CC2)S(=O)(=O)c2ccc(Br)cc2)cc1", "Potency": "inactive"}
{"smiles": "COc1ccccc1NC1=C(Cl)C(=O)N(c2ccccc2)C1=O", "Potency": "inactive"}
{"smiles": "Cc1cccc(NC(=O)c2cc3c(=O)n4ccccc4nc3s2)c1", "activity, negative = less viability": "inconclusive: 40%"}
{"smiles": "Cc1cccc(NC(=O)CC2Nc3cccc4cccc(c34)NC2=O)c1", "note": "(centres undefined)", "Potency": "inconclusive [cytotoxic, single point]"}
{"smiles": "CC(C)(C)c1ncc(S(=O)(=O)c2ccc(C(F)(F)F)cn2)c(N)n1", "Potency": "inconclusive [cytotoxic, single point]"}
{"smiles": "Cc1ccccc1Cn1c(=N)n(CC(=O)c2ccco2)c2ccccc21", "Potency": "inconclusive [cytotoxic, partial curve]"}
{"smiles": "[O-]/[N+](=C/c1ccc(F)cc1)c1ccc(Cl)cc1", "Potency": "inactive"}
{"smiles": "CCN1CCN(c2ccc(S(=O)(=O)N3CCOCC3)cc2NC(=O)c2ccccc2SC)CC1", "Potency": "inactive"}
{"smiles": "O=C(NC1CCCCC1)c1cc(S(=O)(=O)N2CCN(c3ccccc3)CC2)ccc1Cl", "activity, negative = less viability": "inconclusive: 2.53% [cytotoxic]"}
{"smiles": "NC(=O)c1cc(-c2ccccc2)nc(N2CCOCC2)n1", "Potency": "inconclusive [cytotoxic, single point]"}
{"smiles": "COc1ccc(CCNC(=O)CCC(=O)N2CC(C)Oc3ccc(Cl)cc32)cc1OC", "note": "(centres undefined)", "Potency": "inactive"}
{"smiles": "CCN(c1ccccc1)S(=O)(=O)c1ccc(Cl)c(NC(=O)CSc2nc(N)cc(=O)[nH]2)c1", "Potency": "inactive"}
{"smiles": "O=C(NC(NC(=S)Nc1cc(Cl)ccc1Cl)C(Cl)(Cl)Cl)c1ccco1", "note": "(centres undefined)", "Potency": "inconclusive [cytotoxic, single point]"}
{"smiles": "CNC(=S)NNC(=O)c1sc2cc(C(F)(F)F)cnc2c1-c1ccccn1", "Potency": "inactive"}
